# In PubChem BioAssay AID1745853 (National Center for Advancing Translational Sciences (NCATS), 2022):
# This is one part of the list. Further columns of the screen follow, without active or inactive calls.
# Columns and labels:
# Assay in all cases: Primary Screen for Target Class Profiling of Small Molecule Inhibitors of Methyltransferases
# [1] = molecular target: Glycine N-methyltransferase (Homo sapiens) (UniProt Q14749); details: purified enzyme, MTase-Glo SAH luminescence; measured here: GNMT inhibition; at 40 µM; stronger effect = lower value
# Method in brief: (§1)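 Each enzyme was assayed with SAM and its substrate. SAH formation detected by MTase-Glo luminescence; single-point 40 uM screen[…].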
# [2] = molecular target: Guanidinoacetate N-methyltransferase (Homo sapiens) (UniProt Q14353); details: purified enzyme, MTase-Glo SAH luminescence; measured here: GAMT inhibition; at 40 µM; stronger effect = lower value
# Method in brief: as §1
# [3] = molecular target: Histamine N-methyltransferase (Homo sapiens) (UniProt P50135); details: purified enzyme, MTase-Glo SAH luminescence; measured here: HNMT inhibition; at 40 µM; stronger effect = lower value
# Method in brief: as §1
# [4] = molecular target: Nicotinamide N-methyltransferase (Homo sapiens) (UniProt P40261); details: purified enzyme, MTase-Glo SAH luminescence; measured here: NNMT inhibition; at 40 µM; stronger effect = lower value
# Method in brief: as §1
# [5] = molecular target: Phenylethanolamine N-methyltransferase (Homo sapiens) (UniProt P11086); details: purified enzyme, MTase-Glo SAH luminescence; measured here: PNMT inhibition; at 40 µM; stronger effect = lower value
# Method in brief: as §1
# % is scaled to controls: 0 for no effect and ±100 for the full control effect.
SMILES,"activity change, negative = inhibition [1] [%]","activity change, negative = inhibition [2] [%]","activity change, negative = inhibition [3] [%]","activity change, negative = inhibition [4] [%]","activity change, negative = inhibition [5] [%]"
COCCCN1C(=O)c2cc3ccc(OC)cc3n2CC1(C)C(=O)NC1CCCCC1 (stereo not given),2.69,3.28,1.73,0.588,0.671
Cn1cc(C(F)(F)F)nc1-c1ccc(OCC(O)CNCCOc2ccc(O)c(C(N)=O)c2)cc1 (stereo not given),-12.3,8.95,-8.73,-19.5,2.12
CC(=O)OC1CC(C(C)(C)O)OC2CCC3(C)OC4=C(C(=O)C=C5C(C)C(OC(C)=O)C6(C)C(C)OC546)C(O)C3C12C (stereo not given),2.16,-2.4,4.92,-12.7,-7.97
Cc1cc(C(=O)N2CC[C@H](NS(=O)(=O)c3cn(C)cn3)C[C@H]2C(=O)N[C@H](Cc2c[nH]c3ccccc23)C(N)=O)n(C)n1,-1.69,-5.43,-2.21,-2.17,-0.358
O=c1[nH]c2ccc(S(=O)(=O)NCc3ccccc3Cl)cc2[nH]1,9.95,0,7.96,-2.3,-7.89
C=CC1(C)CC=C2C(CCC3C(C)(C(=O)O)CCCC23C)C1 (stereo not given),-1.55,-1.72,8.11,-31.7,-7.67
O=C(Cn1ccc2cc(S(=O)(=O)N3CCCCC3)ccc21)NCCCN1CCCCC1,-1.73,1.97,-35.1,-3.65,-2.06
COCCCN1C(=O)c2c(NC(C)=O)c3cc(OC)ccc3n2CC1(C)C(=O)NC1CCCCCC1 (stereo not given),-2.69,3.6,1.03,-1.2,-1.27
Cn1c2c(c3ccccc31)C(C(=O)NCc1ccc(F)cc1)N(c1cccc(C(F)(F)F)c1)C(=O)CS2 (stereo not given),1.81,0,11.2,0.729,7.37
CCCn1c(=O)c2ccc(Cl)cc2n2c(=O)n(CC(=O)N3CCN(c4ccc(F)cc4)CC3)nc12,-3.77,-5.02,9.29,-9.98,-5.8
CCS(=O)(=O)N[C@@H]1CN(C2CCOCC2)C[C@H]1CN(C)C,-4.12,0.932,-0.39,-2.33,5.57
CC(C)(C)c1ccc(S(=O)(=O)Nc2ccc(Cl)cc2C(=O)c2cc[n+]([O-])cc2)cc1,3.32,7.4,4.35,-16.2,0.224
CN(CC1CCOCC1)C(=O)NCc1ccco1,-0.087,0.022,1.1,1.23,3.46
CC1(C(=O)NC2CCCCCC2)Cn2c(ccc2-c2ccco2)C(=O)N1CCc1ccc(Cl)cc1 (stereo not given),-2.54,4.94,4.49,-2.83,0.305
Cc1cccc(NC(=O)N2CCn3cccc3C2C(C)C)c1C (stereo not given),15.9,0,8.04,8.43,8.52
CCOc1ccc2cc(-c3nnc(Nc4ccccc4)s3)c(=O)oc2c1,3.69,-1.25,-0.456,5.89,-4.04
CC(=O)OCC(Cc1ccccc1)NC(=O)C(Cc1ccccc1)NC(=O)c1ccccc1 (stereo not given),4.14,-3.25,5.94,-10.6,0.944
COc1ccc(-c2cnc(Nc3ccc(CN4CCN(C)CC4)cc3)c3c2CCO3)cn1,-15,-7.9,-39.2,-13.5,-8.49
O=[S+]1([O-])NCC2(CCN(Cc3ccccn3)CC2)Nc2ccccc21,-0.697,0.073,1.33,-1.33,2.34
CC1CCC(NC(=O)C2(C)Cn3c(cc4occc43)C(=O)N2CCCN2CCOCC2)CC1 (stereo not given),4.43,1.09,7.76,7.35,3.86
CCCn1c(=O)c2ccc(C(=O)NCC(C)C)cc2n2c(=O)n(CC(=O)c3ccc(OCC)cc3)nc12,6.7,2.77,11.1,2.57,8.18
CCCn1c(=O)c2cc(F)ccc2n2c(SCC(=O)Nc3ccccc3F)nnc12,-3.83,2.81,4.15,-2.54,-0.77
Cc1cnc(-c2ccncc2)n1CCNC(=O)NCc1ccc(F)cc1,2.53,0.278,1.9,-0.206,0.71
COc1ccc(C(=O)N2CCC(C3CCN(S(C)(=O)=O)CC3)C2)cn1 (stereo not given),-6.92,-6.22,-5.35,-11.5,-8.65
CN1CCN([C@H]2[C@@H]3OC[C@@H](O3)[C@@H](NC(=O)Nc3ccccc3)[C@@H]2O)CC1,-2.69,-3.39,-0.023,-8.25,-5.36
CCCn1c(=O)c2ccccc2n2c(SCC(=O)Nc3cc(OC)cc(OC)c3)nnc12,8.23,0.058,9.17,7.11,4.5
CCCn1c(=O)c2ccc(C(=O)NC(C)C)cc2n2c(SCc3ccc(C)cc3)nnc12,-2.98,-1.36,-2.79,-17.1,-4.3
